Data as given in the RNAGym collection of RNA variant scans (doi:10.1093/nar/gkz1192).
Read counts are not given, so values of variants with three or more changes are uncertain.

B1: CPEB3 Ribozyme (parent)
chain: UAACAGGGGGCCACAGCAGAAGCGUUCACGUCGCAGCCCCUGUCAGAUUCUGGUGAAUCUGCGAAUUCUGCUGUAUAUCUC

Variants of: B1
Experiment: self-cleavage, relative activity (ratio to wild type); higher = more cleavage; in vitro, sequencing
Outline: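 For each CPEB3 ribozyme variant, relative activity is its cleaved/total read fraction divided by the unmutated ribozyme's. Barcoded error-prone PCR libraries were transcribed by T7 RNA polymerase (5 hours, 37°C) and held in DNase I for 15 min before an EDTA stop, with cleavage occurring throughout. Template-switching reverse transcription and Illumina sequencing were used to read the RNAs. A 5-read minimum applied, and results are the mean of three batches.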
UAACAGGAGGCCACAGCAGAAGCGUUCACGUCGCAGCCCCUGUCAGAUUCUGGUGAAUCUGCGAAUUCUGCUGUGUGUCUC showed a self-cleavage of 0.09.
UAACAGGAGGACACAGCAGGAGCGUUCACGUCGCAGCCCCUGUCAGAUACUAGUGAAUCUGCGAAUUCUGCUGUAUAUCUC showed a self-cleavage of 0.05.
UAACAGGAGGUCACAGCAGAGGCGUUCACGUCGCAGCCCCUGUCAGAUUCUGGUGAAUCUGCGGAUCCUGCUGUAUUUCUA showed a self-cleavage of 0.03.
UAACAGGAGGUCACAGCAGAAGCAUUCACGUCGCUGCCCCCGUCUGAUUCUGGUGAAUCAGCGAAUUCUGCUGUAUAUCUC showed a self-cleavage of 0.13.
With UAACAGGAGGUCACAGCAGAAGCGUUCACGCCGCAGCCCCUGUCAGAUUCUGGUGAAUCUGCGAAUUCUGCUGUAUAUCUC the self-cleavage was 0.26.
With UAACAGGAGGCAACAGCAGAAGCGUUCACGUCGCAGCCCCUGUCAGAAUCUGGUGAAUCUGCGAAUUCAGCUGCAUAUCUC the self-cleavage was 0.19.
For UAACAGGAGGCUACAGCAGAAGCGUCCACGUCGCAGCCCCAGUCAGAUUCUGGUGAAUCUGCGAGUUCUGCAGUAUACCUC, the self-cleavage was 0.03.
With UAACAGGAGGCCAUAGCAGGAGCGUUCACGUCGCAGCCCCUGUCAGAUUCUGGUGAAUCUGCGAAUUCUUCUGUAUAUCUC the self-cleavage was 0.17.
For UAACAGGAGGCCACAGGAGAAGCGUUCACGUCGCUGCCCCUGUCAGAUUCUGGUGAAUCUGCGAAUUCUGCUGUAUAUCUC, the self-cleavage was 0.17.
Variant UAACAGGAGGCCACAGUAGAAGCGUUCACUUUGCUGCCCCUGUCUGACUCUGGUGAAUCUGCGAAUUCUGCUGUAUAUCUC has a self-cleavage of 0.04.
UAACAGGAGGCCACAGCAGAAGGGCUCACGUCGCAGCCCCUGUCAGAUUCUUGUGAAUCUGCGAAUUCUGCUAUAUAUCUC gave a self-cleavage of 0.06.
With UAACAGGAGGCCACAGCAGAAGCGUUCAAGUCGCAGCCCCUGUCAGAUUCCGGUGAAUCUGCGAAUCCUGCUGUAUAUCUC the self-cleavage was 0.06.
UAACAGGAGGCCACAGCAGAAGCGUUCACGUUGCAGCCCCUGUCAGAUUCUGGUGAAUCUGCGAAUUCUGCCGUAUAUCCC showed a self-cleavage of 0.26.
For UAACAGGAGGCCACAGCAGAAGCGUUCACGUCGCAGCUCCUGUCAGAUUCCGGCGGAUCUGCGAAUUCUGCUGCAAAUCUC, the self-cleavage was 0.03.
In the case of UAACAGGAGGCCACAGCAGAAGCGUUCACGUCGCAGCCCGUGUCAGAUUCUGGUGGAUCUGCGAAUUCUGCUGUAUAUCUC, the self-cleavage is reported as 0.07.
UAACAGGAGGCCACAGCAGAAGCGUUCACGUCGCAGCCCCUGUUAGAUUCUGAUGAAUCUGCGAAUUCUGCUGUAUAUCUC gave a self-cleavage of 0.06.
With UAACAGGAGACCACAGCAGUAGCGUUCACGUCGCAGCCCCUGUCUGAUUCUGGUGAAUCUGCGAAUUCUGUUGUAUAUCUC the self-cleavage was 0.04.
UAACAGGAGACCACAGCAAAAGCGGUCACGUCGCAGCCCCUGUCAGAUUCUGGUGAAUCUGUGAAUUCUACUGUAAAUCUC showed a self-cleavage of 0.03.
Variant UAACAGGAGUCCACUCCAGAAGCGUUCACGCCGCAGCCCCUGUCAGAUUCUGGUGAACCUGCGAGUUCUGCUGUAUAUCUC has a self-cleavage of 0.11.
Variant UAACAGGAGGCCACAACAGGGGCGUUCACGUCGCAGCCCCUGUCUGAUUCUGGCGAAUCUGUGAAUUCUGCUGUAUAUCUC has a self-cleavage of 0.04.
Work on UAACAGGAGGCCACACCAGAAGCGUUCACGUCGCAGCCCCUAUCAGAUUCUGGUGAAUCUGCGAAUUCUGCUGUAUAUCUC yielded a self-cleavage of 0.21.
UAACAGGAGGCCACAGCAUAAGCGUACACGUCGCAACCCCUGUCAGAUUCUGGCGAAUCUGCGAAUUCGGCUGUAUAUCUC gave a self-cleavage of 0.02.
Work on UAACAGGAGGCCACAGCAGAAGCAUUCACGUCGCAGCCCCUGUCAGAUUCUGGUGAAUCUGCGAACUCUGCUGUAUAUCUC yielded a self-cleavage of 0.25.
UAACAGGAGGCCACAGCAGAAGCGUUCACCACGCAGCCCCUGUCAGAUUCUGGUGAAUCUGCGAAUUCUGCUGUAUAUCUC showed a self-cleavage of 0.21.
In the case of UAACAGGAGGCCACAGCAGAAGCGUUCACCUCGCAGCCCCUGUCAGAUUCUGGUGAACCUGCGAAUUCUGCUGUAUAUCUC, the self-cleavage is reported as 0.07.
Work on UAACAGGAGGCCACAGCAGAAGCGUUCACGUCACAGCCCCUGUCAGAUUCUGGUGAAUCUGCGAUUUCUGCCGUAUACCUC yielded a self-cleavage of 0.05.
In the case of UAACAGGAGGCCACAGCAGAAGCGUUCACGUCGCAACCCCAGUCAGAUUCUGGUGAAUCUGCGAAUUCCGCCGUAUUUCUC, the self-cleavage is reported as 0.06.
For UAACAGGAGGCCACAGCAGAAGCGUUCACGUCGCACCCCCCGCCAGAUUCUGGUGAAUAUGCGAAUUCUGCUGUAUAUCCC, the self-cleavage was 0.06.
UAACAGGAGGCCACAGCAGAAGCGUUCACGUCGCAGCCCCUGUCAGAUUCUAGUGAAUCUGCGGAUUCUGCUGUAUAUCUC gave a self-cleavage of 0.11.
Work on UAACAGGAGGCCACAGCAGAAGCGAUCGCGUCGCAGCCUCUGUCAGAUUCUGGUGAAUCUGCGAAUGCUGCUGCAUACCUC yielded a self-cleavage of 0.03.
Variant UAACAGGAGGCCACAGCAGAAGCGAACACGUCGCAGCCCCUGUUAGAUUCUGGUGAAUCUGCGAAUUCUGCUGUAUAUCAC has a self-cleavage of 0.24.
Variant UAACAGGAGGCCACAGCAGAAGCGAUCACGUCGCAGCCCCAGUCAGAUUCUGGUGGAUCUGCGAAUUCUGCUGUUCAUCUC has a self-cleavage of 0.18.
UAACAGGAGGCCACAGCAGAAGCGCUCACGUCGCGGCCCCUGUCAGAUUCUGGUGAAUCUGCGAAUACUGCUAUAUAUCUC gave a self-cleavage of 0.07.
Work on UAACAGGAGGCCACAGCAGAAGCGCUCACGUUGCAGCCCAUGUCAGAUUCUGGUGAAUCUGCGAAUUCUGCUGUAUACCAC yielded a self-cleavage of 0.14.
